In the supplement of paper PMC12632987:
The full ranking holds about 4,500 sequences; the median of “median log2 fold change of GCK-ALFA target abundance (FLAG IP / Myc IP barcode read proportion)” is about 0.078, and the lowest 2% start at about -0.6. The list shows a part of the results.

B1: GBRAP_83_6990 (protein)
chain: KEKITVAANGDDIEEAAEIVIDLTKEEGYEVDVEIIATKEDWEKVLEMVERLAEAGIETDITVLAEGITEEEAKEKQKELEEIAKEHGVNINVKVYAIEP
B2: GBRAP_52_6214 (protein)
chain: MEEKIEEAAEKIADALIAGDEEKLVKLVKEAIKEFNLEDLEKIAARMGRILAKRLAGDEERIVALIDKFEEAAKKAGLSEDDALALEGAAEAAAIKELLA
B3: GBRAP_14_3777 (protein)
chain: MEKKKEIIEEHAEEIIELLSELAPEKAEEFRKAVEEVTKETIEEIEKTGDVEKALEEGEERLVERIEEILADEPAEVRARAVAIVRVEMGNALLEIDELE
B4: GBRAP_184_5185 (protein)
chain: MIEEFTIEANNVEELKKKLKEIAEKIKGKKVELYIILKAEKVTVEMAEAAMDELGEIKKAGYATKITVLVEGDVSEEVVDVLVEKGKEAGVNVTIALPEE
B5: GBRAP_95_7056 (protein)
chain: EDGRLAFEDDAEVLDTYVELGDEEAARRAARRAVALFKEIGPVPLPKSISLEAKKLLLEVAAEEADEETQEALLAELLASARTEEEKEALRAHYEALKAA
B6: GBRAP_52_6013 (protein)
chain: MRARLRAFVDEVLALVKAGRLAEAEARLRELVASLDEEELELLIDVIAERAAAAAPEDQEAVWTLAEMLEEQLLAAGVDEALADDLLARVAAALYEAEQR
B7: GBRAP_106_2558 (protein)
chain: SKKETAEKIYKEMLEEAKKEIAEHEAWLAKHRSQLTPEEIRAINQYLRDYLVAKLLRKMIEAGIITKEEAKEILEEVRKRKDLDPLEALEYAGKLVLEKI
B8: GBRAP_26_5438 (protein)
chain: IEEVEREAIERLAEVAAKIGDPEKAAAALAEAITLLHEFVETVEEEDLSEEEMEELAEEKVEELREFLEDLGLSEELREELVETFREALKRIAEELKKER
B9: GBRAP_52_6384 (protein)
chain: AVEEAAELLWRAIELIMEGGPREEVEKLAKELLEFDEETLEEAAELVAERVRGLSPEEAEAALEATFELADILEELGLPEEVASLIEAEIGKAAYEVLQR
B10: GBRAP_128_3408 (protein)
chain: STEETVERARELLEAMLTADEEEQRRLAEELAELLLESDLETVERIVEVILEKLPEFTAEQLEILADVLEARRDEFTPEKQELVSEVIVEALNLAEELEE
B11: GBRAP_166_4899 (protein)
chain: AVEAAIARINALAAETIANIASLSDEELLARFVEMAEIAEEAGPTPELRAATAAAFVAILAAAEAAGRDPDTVASLILAAVGPNEKLLDAVEAAIAAARA
B12: GBRAP_184_5072 (protein)
chain: TVVEETLRVENVEEARAQMDALEERLRDVKGTLVVHLEMERFDRETVEAVVDRLAEMKEAGLVDRVVLGLDADVTEEEVDWAVALADEAGIQLVLALEEE
B13: GBRAP_160_4635 (protein)
chain: MESLEEMKEVVEEYTKIALEYIDEGDLDGALAALRMMVGDLVMLASEDPRFSDEDVDKLAEAGDAAVAEFEANRDASKEELKKLVEEAAKKLKELIEEFY
B14: GBRAP_160_4831 (protein)
chain: SEKLEEFKKFIDEEFEETLEMMKGESTEQRAAIVRVTFGRIIMEGRELGVLTDELEDFIREVEDEVVATILANPDLTDEELEALLNEARDKIIEALEKSS
B15: GBRAP_160_4591 (protein)
chain: MEALERAKEIVEEELEEAEEMIVGETAEQRATIVAGAGGEIIWELDELPEATDELLDRVDAIIDAAVARILANPDLTEEEVRALLREAREAIKRAIEEAF
B16: GBRAP_95_7055 (protein)
chain: DDAELAAQDLAEVVDTLVELGDEDAARRAAERLVALHREEGPLPIPASVSLEARKLILTVAHETASPADLEALLAALLASATTEEDKAALRAHHAALLAA
B17: GBRAP_128_3417 (protein)
chain: ADEEKVAEARALLAEMLTADPATAAALADRLVALIAAADLETAEAIGEVILEELPRFTAEQLDILADAIRAALPAATPEKAEILADVLVAALNEAEEKEE
B18: GBRAP_139_3753 (protein)
chain: MSLEELIAEAVALARAIPEDPEGAIRRIAELLLSVDDEDAERVARAIAEELLGLPFDEFEAISDALIETLLEEFGNEDLADIVEAERNRALAEIAVREEA
B19: GBRAP_160_4010 (protein)
chain: SAEIEALKKEIRELFEELKEDIKGLTPEERLTLARGTIGDIIQLALESPSVSDETEDKIAEIGDEFIARAEANADAPLEVWVALIEEHEKRVFELLDESE

Molecular target: GABARAP, O95166
Sequence (O95166 whole entry, the tested form may be a part): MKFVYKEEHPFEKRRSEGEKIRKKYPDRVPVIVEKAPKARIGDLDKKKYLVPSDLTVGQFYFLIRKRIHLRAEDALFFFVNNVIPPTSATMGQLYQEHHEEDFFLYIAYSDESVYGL
Assay: median log2 fold change of GCK-ALFA target abundance (FLAG IP / Myc IP barcode read proportion) (log2 ratio); each designed protein is fused to an ALFA-tag nanobody in HEK293 cells to bring the named protein to FLAG-tagged glucokinase (GCK); Myc marks an untargeted standard; higher = target protein stabilised (more abundant)
Details: target protein: 3xFLAG-MCP-GCK-ALFA reporter; HEK293 landing pad (RPLP)
How it was run: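 The readout is target abundance, the per-binder median log2 ratio of FLAG to Myc barcode read proportions. It came from HEK293 landing-pad cells carrying a recombined ALFA-nanobody-fused binder library, induced with 2 μg mL^−1 doxycycline and transfected with a plasmid for a FLAG-tagged target and a Myc-tagged standard. After 48 h, lysates were immunoprecipitated with anti-FLAG and anti-Myc, and circular RNA barcodes were reverse transcribed, amplified and sequenced. Each barcode needed a proportion of at least 10^−7 in both replicates and each binder at least 3 barcodes per replicate, a pseudocount of 10^−6 was added, and the replicates were pooled.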

In order of falling “median log2 fold change” value:
1. B16  0.283
2. B3  0.25
3. B5  0.226
4. B14  0.188
5. B17  0.182
6. B19  0.158
7. B11  0.125
8. B12  0.0731
9. B10  0.0331
10. B4  0.0278
11. B2  0.00341
12. B1  -0.0785
13. B13  -0.119
14. B6  -0.123
15. B18  -0.139
16. B8  -0.152
17. B15  -0.395
18. B9  -0.543
19. B7  -0.711
